# The shares of active, inactive and inconclusive entries below differ from those in the screen. Potencies of inconclusive entries are left out as doubtful fits. Activity calls are given as the source filed them. Calls follow the shape of the dose curve; as a rule, active = well fitted curve in the direction sought with a large enough effect; inconclusive = small, poorly fitted or top-dose-only effect, or another doubt; inactive = no such curve, though single readings can be large; an effect the other way counts as inactive or inconclusive.
# Columns and labels:
# [1] = BET inhibitor-based combinations targeting novel dependencies in MECOM-rearranged (r) AML: AML-191 cell line (AID 2202236; also: nearly all actives have a fitted effect of over 35% in size)
# In short: (§1)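 Readout: CellTiter-Glo luminescence. Exposure: 48 h, 11 concentrations, 500 cells/well. Metric: AUC and within-line Z-AUC after DMSO/empty-well normalization.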
# [2] = BET inhibitor-based combinations targeting novel dependencies in MECOM-rearranged (r) AML: AML-194 cell line (AID 2202237; also: nearly all actives have a fitted effect of over 40% in size)
# In short: as §1
# [3] = BET inhibitor-based combinations targeting novel dependencies in MECOM-rearranged (r) AML: UCSD-AML1 cell line (AID 2202235); also: nearly all actives have a fitted effect of over 40% in size
# In short: (§2)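 Seeding density was 500 cells/well, and drug exposure lasted 48 hr under standard culture conditions. Read-out used CellTiter-Glo reagent with a 15 min room-temperature incubation before luminescence measurement; AUC and Z-AUC summarize the normalized responses.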
# [4] = BET inhibitor-based combinations targeting novel dependencies in MECOM-rearranged (r) AML: HNT-34 cell line (AID 2202234); also: nearly all actives have a fitted effect of over 35% in size
# In short: as §2
# Potency is read from the fitted curve at half-maximal effect; tags tell the direction and shape of the fitted curve.
compound,measurement,setting,value
CCOP(=O)(OCC)C(C)NC(=O)N(CCCl)N=O (configuration not stated),Potency,[1],inactive
O=C1CC[C@@]2(O)[C@H]3Cc4ccc(O)c5c4[C@@]2(CCN3CC2CC2)[C@H]1O5,Potency,[1],inactive
same,Potency,[2],inactive
CCCCCCC(C)(C)c1cc(O)c2c(c1)OC(C)(C)C1CC=C(CO)C[C@H]21 (some centres not stated),Potency,[3],"inconclusive [inhibitor, single point]"
CNCC(O)c1ccc(O)cc1 (configuration not stated),Potency,[4],inactive
same,Potency,[1],inactive
O=C(O)c1nn(Cc2ccc(Cl)cc2Cl)c2ccccc12,Potency,[1],inactive
CCC1(c2ccc(N)cc2)CCC(=O)NC1=O (configuration not stated),Potency,[1],inactive
CN(C)c1cc2c(cc1Sc1nc3c(N)nccc3n1CCNCC(C)(C)C)OCO2,Potency,[4],"inconclusive [inhibitor, full curve]"
same,Potency,[1],"inconclusive [inhibitor, full curve]"
same,Potency,[2],"inconclusive [inhibitor, full curve]"
N=c1c2c(-c3ccccc3)c(-c3ccccc3)n(Cc3ccccc3)c2ncn1C1CCC(O)CC1 (configuration not stated),Potency,[2],active: 4.68 µM
C[C@]12CC[C@H]3[C@@H](CCC4=CC(=O)CC[C@@]43C)[C@H]1CC[C@H]2OC(=O)CCC1CCCC1,Potency,[4],inactive
same,Potency,[3],inactive
Cc1sc2c(c1C)C(c1ccc(Cl)cc1)=NC(CC(=O)Nc1ccc(O)cc1)c1nnc(C)n1-2 (configuration not stated),Potency,[4],"inconclusive [inhibitor, full curve]"
same,Potency,[1],"inconclusive [inhibitor, full curve]"
same,Potency,[2],"inconclusive [inhibitor, full curve]"
C=C[C@H]1CN2CCC1C[C@@H]2[C@@H](O)c1ccnc2ccccc12 (some centres not stated),Potency,[1],inactive
Cc1sc2c(c1C)C(c1ccc(Cl)cc1)=N[C@@H](CC(=O)OC(C)(C)C)c1nnc(C)n1-2,Potency,[2],"inconclusive [inhibitor, full curve]"
CC(C)C[C@H](CN)CC(=O)O,Potency,[3],inactive
same,Potency,[1],inactive
same,Potency,[2],inactive
CN(C)[C@@H]1C(=O)C(C(N)=O)=C(O)[C@@]2(O)C(=O)C3=C(O)c4c(O)cccc4[C@@](C)(O)[C@H]3[C@H](O)[C@@H]12,Potency,[1],inactive
Cc1sc2c(c1C)C(c1ccc(Cl)cc1)=NC(CC(N)=O)c1nnc(C)n1-2 (configuration not stated),Potency,[3],"inconclusive [inhibitor, full curve]"
same,Potency,[1],"inconclusive [inhibitor, full curve]"
Clc1ccccc1C(c1ccccc1)(c1ccccc1)n1cccn1,Potency,[4],inactive
same,Potency,[1],inactive
CC(=O)Nc1ccc(OC[C@](C)(O)C(=O)Nc2ccc([N+](=O)[O-])c(C(F)(F)F)c2)cc1,Potency,[1],inactive
CC(C)(C)c1cc(C=C(C#N)C#N)cc(Br)c1O,Potency,[4],active: 16.6 µM
same,Potency,[1],active: 18.6 µM
same,Potency,[2],"inconclusive [inhibitor, partial curve]"
C[C@]12CC[C@H](O)CC1=CC[C@@H]1[C@@H]2CC[C@]2(C)C(=O)CC[C@@H]12,Potency,[4],inactive
same,Potency,[3],inactive
C[C@](O)(COc1ccc(C#N)cc1)C(=O)Nc1ccc(C#N)c(C(F)(F)F)c1,Potency,[3],inactive
same,Potency,[1],"inconclusive [inhibitor, full curve, poor fit]"
COC(=O)[C@@]12OC[C@]34[C@H]([C@@H](O)[C@@H]1O)[C@@]1(C)CC(=O)C(O)=C(C)[C@@H]1C[C@H]3OC(=O)[C@H](OC(=O)/C=C(\C)C(C)C)[C@@H]24,Potency,[1],active: 0.0066 µM
same,Potency,[2],active: 0.0059 µM
COCC1(CO)C(=O)C2CCN1CC2 (configuration not stated),Potency,[3],active: 5.25 µM
CC(C)(O)C(=O)Nc1ccc([N+](=O)[O-])c(C(F)(F)F)c1,Potency,[4],"inconclusive [inhibitor, partial curve, poor fit]"
same,Potency,[3],inactive
same,Potency,[1],"inconclusive [inhibitor, single point]"
same,Potency,[2],"inconclusive [inhibitor, single point]"
N#CC(O[C@@H]1O[C@H](CO[C@@H]2O[C@H](CO)[C@@H](O)[C@H](O)[C@H]2O)[C@@H](O)[C@H](O)[C@H]1O)c1ccccc1 (some centres not stated),Potency,[3],"inconclusive [inhibitor, full curve, poor fit]"
same,Potency,[1],inactive
C[C@]12CC[C@@H]3[C@@H](CCC4=CC(=O)CC[C@@H]43)[C@@H]1CC[C@@H]2OC(=O)CCc1ccccc1,Potency,[3],inactive
O=S(=O)(CC1CS1)c1ccc(Oc2ccccc2)cc1 (configuration not stated),Potency,[3],"inconclusive [inhibitor, single point]"
same,Potency,[1],"inconclusive [inhibitor, single point]"

# From PubChem BioAssay (NCATS)
